The source of these data is the CheMixHub viscosity set.

± gives the uncertainty stated by the source. A number of entries come with more than one value. This list holds those alone. The source may hold further records. The records of an entry repeat one measurement (runs, samples, wells, individuals or studies). What stands in brackets tells the records apart. The letters are not those of the source and start again with each entry. Counts like (3×) stand for listed records that agree.

As to `CCCCOCCO`, the viscosity reads like this: (293.15 K, 101 kPa) 3.187 ± 0.029 mPa·s [study A] and 3.239 ± 0.083 mPa·s [study B] and 3.239 ± 0.029 mPa·s [study C] and 3.239 ± 0.02 mPa·s [study D]; (298.15 K, 101 kPa) 2.792 ± 0.021 mPa·s [study A] and 2.825 ± 0.072 mPa·s [study B] and 2.795 ± 0.021 mPa·s [study C] and 2.825 ± 0.017 mPa·s [study D] and 2.825 ± 0.032 mPa·s [study E]; (303.15 K, 101 kPa) 2.449 ± 0.063 mPa·s, 2.449 ± 0.024 mPa·s, 2.449 ± 0.015 mPa·s, 2.823 ± 0.72 mPa·s (2×), 2.823 ± 0.051 mPa·s, 2.403 ± 0.24 mPa·s, 2.404 ± 0.055 mPa·s, 2.411 ± 0.028 mPa·s, 2.428 ± 0.098 mPa·s, 2.446 ± 0.022 mPa·s [several studies]; (308.15 K, 101 kPa) 2.29 ± 0.052 mPa·s [study A] and 2.279 ± 0.092 mPa·s [study B] and 2.079 ± 0.022 mPa·s [study C] and 2.288 ± 0.23 mPa·s [study D]; (313.15 K, 101 kPa) 2.12 ± 0.049 mPa·s [study A] and 2.121 ± 0.086 mPa·s [study B] and 1.93 ± 0.017 mPa·s [study C] and 1.689 ± 0.02 mPa·s [study D] and 2.119 ± 0.21 mPa·s [study E].

For the compound `CNC=O`, the viscosity runs as follows: (303.15 K, 100 kPa) 1.585 mPa·s [study A] and 1.585 ± 0.061 mPa·s [study B] and 1.585 ± 0.036 mPa·s [study C]; (308.15 K, 100 kPa) 1.462 mPa·s [study A] and 1.462 ± 0.061 mPa·s [study B] and 1.462 ± 0.034 mPa·s [study C]; (313.15 K, 100 kPa) 1.352 mPa·s [study A] and 1.352 ± 0.061 mPa·s [study B] and 1.352 ± 0.031 mPa·s [study C]; (318.15 K, 100 kPa) 1.255 mPa·s [study A] and 1.255 ± 0.06 mPa·s [study B].
